In all, about 110,000 compounds were measured (“z-score”: median about -0.1, highest 2% from about 2 on). This is one part of the list.
target: Metabotropic glutamate receptor 8 (Rattus norvegicus) (UniProt P70579); experiment: rat mGluR8 modulators via GIRK flux, primary screen, cell-based, thallium flux, HTS (AID 488969); settings: HEK293 rat mGluR8, GIRK (G protein-gated inwardly rectifying potassium channel) thallium flux, FluoZin2; at 10 µM; stronger effect = higher value; submaximal glutamate (EC20) added with thallium
Sequence of UniProt P70579 (P70579 whole entry, looked up): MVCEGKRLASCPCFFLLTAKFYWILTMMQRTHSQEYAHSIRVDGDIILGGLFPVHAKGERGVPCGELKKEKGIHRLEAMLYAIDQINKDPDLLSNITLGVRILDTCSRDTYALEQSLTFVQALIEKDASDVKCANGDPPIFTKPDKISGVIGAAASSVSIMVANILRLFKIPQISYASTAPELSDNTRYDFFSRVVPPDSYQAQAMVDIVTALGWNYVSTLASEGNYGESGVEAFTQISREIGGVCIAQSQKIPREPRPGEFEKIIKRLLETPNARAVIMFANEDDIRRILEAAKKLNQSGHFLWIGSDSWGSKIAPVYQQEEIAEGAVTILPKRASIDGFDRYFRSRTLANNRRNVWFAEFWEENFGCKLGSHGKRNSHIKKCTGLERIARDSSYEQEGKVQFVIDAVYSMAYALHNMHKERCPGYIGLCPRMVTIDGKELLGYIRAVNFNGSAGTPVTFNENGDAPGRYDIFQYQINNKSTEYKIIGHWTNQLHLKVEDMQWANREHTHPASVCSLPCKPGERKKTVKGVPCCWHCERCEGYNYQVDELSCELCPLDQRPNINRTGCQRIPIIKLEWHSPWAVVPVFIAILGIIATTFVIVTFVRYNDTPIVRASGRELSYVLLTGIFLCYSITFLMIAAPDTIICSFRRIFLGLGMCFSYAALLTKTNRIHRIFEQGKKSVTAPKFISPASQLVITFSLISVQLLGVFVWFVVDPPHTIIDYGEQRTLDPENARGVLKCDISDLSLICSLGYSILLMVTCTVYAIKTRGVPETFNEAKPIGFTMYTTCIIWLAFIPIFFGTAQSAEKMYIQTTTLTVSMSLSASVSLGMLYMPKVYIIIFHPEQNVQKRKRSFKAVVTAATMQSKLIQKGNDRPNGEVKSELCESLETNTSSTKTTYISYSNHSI

SMILES | z-score
O=C(c1ccc2ccccc2n1)N1CCN(c2ccccc2)CC1 | 0.353
O=C(CSc1nnc(SCc2ccccc2)s1)N/N=C/C=C\c1ccco1 | -0.33
O=c1c2ccccc2n2c(-c3cccc(F)c3)nnc2n1Cc1ccccc1 | -0.25
CCCn1c2ccccc2c2nnc(SCC(=O)Nc3c(C)n(C)n(-c4ccccc4)c3=O)nc21 | 0.182
Cc1cccc(CCNc2nc3ccccc3n3nnnc23)c1 | 0.0311
COc1cc(NC(=O)CN2CCC(Cc3ccccc3)CC2)c(C)cc1[N+](=O)[O-] | -0.206
COC(=O)C1=C(C)NC2=C(C(=O)c3ccccc32)C1c1ccc(-c2ccc(C(=O)O)cc2)o1 (stereo unspecified) | -1.5
Nc1c(C(=O)Nc2ccccc2F)sc2nc(Cc3ccccc3)cc(C(F)(F)F)c12 | -0.288
CC(C)OCCCNc1ncnc2c1cnn2-c1ccccc1 | -0.291
COc1cc(C)ccc1N(CCCN1C(=O)c2cccc3cccc(c23)C1=O)C(=O)c1cccs1 | 0.509
O=C(NCc1n[nH]c(=S)n1-c1ccc(F)cc1)c1ccc(S(=O)(=O)N2CCCC2)cc1 | 0.261
CC(C)(C)NC(=O)C(c1ccncc1)N(C(=O)c1csnn1)C1CC1 (stereo unspecified) | -0.195
Cc1c(NC(=O)CSc2nnc(-c3ccco3)n2-c2ccccc2)c(=O)n(-c2ccccc2)n1C | -0.287
CCOC(=O)c1ccc(NC(=S)Nc2ccccc2)cc1 | 1.7
O=C(COc1ccc([N+](=O)[O-])cc1)N/N=C/c1cc([N+](=O)[O-])ccc1N1CCOCC1 | 0.208
O=C1N=C(N2CCOCC2)S/C1=C\c1ccc(-c2ccccc2Cl)o1 | -0.0639
COCCN1C(=O)C(=O)/C(=C(/O)c2cccc(S(=O)(=O)N(C)C)c2)C12C(=O)N(C)c1ccccc12 (stereo unspecified) | -0.343
Cc1ccc(CNC(=O)CCCOc2cc(=O)n(C)c3ccccc23)o1 | -0.129
CCOc1cc2[nH]c(=O)n(CCC(=O)NCc3ccc(OC)cc3)c(=O)c2cc1OCC | -0.0556
Cc1cccc(N2C(=O)SC(N(CC(=O)O)c3cccc(C)c3)C2=O)c1 (stereo unspecified) | -0.564
Cc1ccc(C(=O)OCC(=O)Nc2ncc(Cl)cc2Cl)cc1NC(=O)c1ccco1 | -0.0349
CC(Sc1ncnc2ccccc12)C(=O)Nc1ccc2c(c1)OCCO2 (stereo unspecified) | -0.25

SMILES | z-score
CC1CCCC/C1=N\NS(=O)(=O)c1ccc(Br)cc1 (stereo unspecified) | 0.101
CNC(=S)NNC(=O)COc1ccc(C)c(C)c1 | -0.056
CCOC12CC(C)(C)CC(C)(CC3=C1C(=O)CC(C)(C)C3)C2 (stereo unspecified) | 2.32
O=C(COC(=O)c1cc(S(=O)(=O)N2CCOCC2)cs1)c1ccccc1 | 0.0581
CCOc1c2ccc(C(=O)NCc3cc(C(F)(F)F)cc(C(F)(F)F)c3)cc2nn1CCOC | -0.219
CCn1c(=O)n(CC(=O)Nc2cc(OC)ccc2OC)c(=O)c2ccccc21 | -0.247
CC(=O)Nc1ccc(S(=O)(=O)Nc2nc3n(n2)C(c2ccccc2)CC(=O)N3)cc1 (stereo unspecified) | -0.375
O=C(Nc1ccccc1C(=O)N1CCOCC1)c1cccnc1 | -0.172
CCCCCCCCOC(=O)C(NC(=O)CCC(=O)Nc1ccc(S(N)(=O)=O)cc1)C(O)c1ccccc1 (stereo unspecified) | 0.483
CC(=O)Nc1nc(C)c(-c2csc(Nc3cccc([N+](=O)[O-])c3)n2)s1 | -0.196
Cc1cc(C)c2cc(CN(CCO)Cc3nnnn3Cc3ccccc3)c(=O)[nH]c2c1 | -0.277
CCN(CC)CCNC(=O)c1ccc2c(c1)ncn2C1CCCCC1 | 1.66
O=c1/c(=C/c2ccc([N+](=O)[O-])cc2)sc2n1CCCN=2 | -0.124
Cc1cccc(N2CCN(C(=O)c3cn(C)c(=O)c4c3c3ccccc3n4C)CC2)c1C | -0.713
O=C(NC1CCCCC1)c1cc2nc3c(c(C(F)(F)F)n2n1)CCCC3 | -0.674
CCC1SC2=NC(C)=C(C(=O)OCCOC)C(/C=C/c3ccccc3OC)N2C1=O (stereo unspecified) | -0.0374
CCCCCn1c(=O)[nH]c2cc(C(=O)NCc3ccc4c(c3)OCO4)ccc2c1=O | -0.0767
CCN(CC)S(=O)(=O)c1ccc(OC)c(NC(=O)c2cc3c(=O)n4ccccc4nc3s2)c1 | -0.178
Cc1ccc(CN2CCN(/N=C/c3ccc(C)s3)CC2)c(C)c1 | 0.0505
Cc1nc(Nc2cccc(C(F)(F)F)c2)nc2c1C(=O)CC(C)C2 (stereo unspecified) | 0.272
COC(=O)c1ccccc1NC(=O)CSc1nc(O)cc(=O)n1C1CCCC1 | -0.979
COc1cc(/C(C)=N/NC(=S)NC(C)C)cc(OC)c1OC | -0.0595

SMILES | z-score
O=C(C1COc2ccccc2O1)N1CCc2ccccc2C1 (stereo unspecified) | -0.0659
O=C(c1cnccn1)N(c1ccccc1)C1(C(=O)NC2CCCC2)CCCCC1 | 0.00523
CC(NC(=O)Cn1nnc(-c2ccncc2)n1)c1ccccc1 (stereo unspecified) | 0.226
O=C(Nc1ccc2c(c1)OCCO2)c1coc2ccccc2c1=O | -0.0224
CC(C)=CC(=O)OCC(=O)Nc1ncc(Cl)c(C)c1Cl | -0.248
CC(C)OC(=O)C(C(=O)C(F)(F)F)c1cc(NS(=O)(=O)c2ccc3ccccc3c2)c2ccccc2c1O (stereo unspecified) | -0.227
O=C(Nc1ccncc1)C1c2ccccc2Oc2ccccc21 | -0.193
COc1ccc(N2CCN(S(C)(=O)=O)CC2)cc1 | -0.114
Cn1c(SCc2ccc3c(c2)OCO3)nnc1-c1ccccc1 | -0.264
C=C(C)CSc1ncc(-c2cccc(C(F)(F)F)c2)cn1 | 0.0396
O=C(c1cc2ccccc2o1)c1nc2c(n1O)CCCCC2 | -0.353
CCOC(=O)c1sc2nc(N3CCOCC3)c3c(c2c1N)CCN(C)C3 | 0.36
COC(=O)C(NC(C)=O)(Nc1ccc(Br)cc1)C(=O)OC | -0.459
CCOc1ccc(C(=O)C(CCC(CN(C)C)C(=O)c2ccc(OCC)cc2)CN(C)C)cc1 (stereo unspecified) | 0.337
COc1cccc(C(=O)Oc2cc3c4c(c2)C(C)=CC(C)(C)N4C(=O)C3=O)c1 | -0.249
CSc1ccccc1NC(=O)COc1ccc(Cl)cc1Cl | -0.15
O=c1[nH]nc2n1CCCCC2 | 0.186
CCc1ccc(NC(=S)N(CCCN2CCOCC2)Cc2ccccn2)cc1 | -0.551
COc1ccc(N(CC(=O)Nc2cccc(OC)c2)S(=O)(=O)c2c(C)nn(C)c2C)cc1 | -0.166
Cc1ccc(-c2ccc(/C=C3/NC(=O)NC3=O)o2)cc1[N+](=O)[O-] | -0.124
COc1ccc(CNC(=O)C2CCCN(S(=O)(=O)c3cc(C)ccc3OC)C2)cc1 (stereo unspecified) | -0.539
CN(C)c1ccc(C=Nc2cnn(C)c2C(N)=O)cc1 | -0.379

SMILES | z-score
COC(=O)c1ccc2nc(C)c(C)nc2c1 | 0.386
Cc1cccc(C)c1N/C=C/c1onc(C)c1[N+](=O)[O-] | 0.293
CCOC(=O)/C(C#N)=C/c1ccc(N2CCN(C)CC2)cc1 | -0.0903
COc1ccccc1CNC(=O)CCSCc1cccc(Cl)c1 | 0.0412
Cc1sc2nc(CN3CCN(S(=O)(=O)c4cccc5nonc45)CC3)[nH]c(=O)c2c1C | -0.227
CCOC(=O)C(C)Sc1nnc(CNC(=O)c2ccc(OC)cc2)n1C1CCCCC1 (stereo unspecified) | -0.0386
N#Cc1cc(-c2ccccc2)nc(Oc2ccccc2)n1 | 0.0354
CC(SC1=NCCS1)C(=O)Nc1nnc(-c2ccc(F)cc2)s1 (stereo unspecified) | 0.0182
Cc1ccc(NS(=O)(=O)c2ccc(NC(=O)C(C)Sc3ccc(Cl)cc3)cc2)c(C)c1 (stereo unspecified) | -0.237
CCN(CC)C(=O)c1ccccc1NS(=O)(=O)c1ccc(C)cc1 | 0.37
NS(=O)(=O)c1ccc(CCNC(=O)CN2CCN(c3ccc(F)cc3)CC2)cc1 | 0.868
CC1(O)c2ccccc2C(=O)N1Cc1ccccc1 (stereo unspecified) | 1.3
CCCc1cc2c(cc1NC(=O)c1ccccc1C)OCO2 | 0.251
CCCCN(C)/C=N/c1c(C#N)cnn1-c1ccc(C)cc1 | -0.927
Cc1cc(-c2cccs2)c2c(N)c(C(=O)c3ccc4c(c3)OCO4)sc2n1 | -1.22
CCc1nccn1-c1cc(C(C)(C)C)nc2c(-c3ccc(Cl)cc3)cnn12 | -0.156
N/C(=N\OC(=O)c1cc(Cl)ccc1Cl)c1cccnc1 | 0.145
Cc1cc(C)c(C)c(Oc2ncnc(N)c2[N+](=O)[O-])c1 | -0.0259
O=C1c2ccccc2C(Nc2ccc(Cl)cn2)N1c1cccnc1 (stereo unspecified) | -1.86
c1nc(NCC2(N3CCOCC3)CCCCC2)c2ccsc2n1 | 0.165
O=[N+]([O-])c1nn(-c2ccc3c(c2)OCCO3)n(O)c1=NC1CCCCCC1 | -0.0616
O=C(NNC(=S)Nc1ccccc1)c1ccncc1 | 0.161

SMILES | z-score
COc1ccc(N2CC(C(=O)Nc3ncccc3C)CC2=O)cc1 (stereo unspecified) | -0.0202
CC(=O)NC1C(c2nc3ccccc3s2)=C(c2ccccc2)C(=O)N1c1ccc(C)cc1 (stereo unspecified) | -0.125
N/C(COc1cccc(C(F)(F)F)c1)=N\NC(=O)c1cccnc1Oc1ccccc1 | -0.285
Clc1ccc(OCCn2cnc3ccccc32)c(Cl)c1 | 0.126
Cc1ccc(NS(=O)(=O)c2cccc(C(=O)NCCc3c[nH]c4ccccc34)c2)c(C)c1 | -0.245
CCCSc1nnc(CN2CCOCC2)n1C | -0.124
O=C(CSc1ccccc1)Nc1ccncc1 | -0.309
CN(C)C(=O)Cn1c(SCC(=O)NCc2ccc3c(c2)OCO3)nc2ccccc21 | -0.00238
CCOC(=O)N1CCN(C(=O)COc2ccc(S(=O)(=O)NCC(C)C)cc2C)CC1 | 0.159
COc1ccccc1OCCNC1CCCC1 | 0.263
Cn1c2ccccc2c2c(C(=O)O)cn(C3CCCC3)c(=O)c21 | -0.532
CCOc1ccc(N(CC)C(=O)CCNC(=O)Cn2ccc3ccccc3c2=O)cc1 | -1.4
Cc1nnc(SC(C)C(=O)Nc2ncc(Cl)cc2Cl)n1Cc1ccccc1 (stereo unspecified) | -0.249
O=C(NCC(=O)N(Cc1ccco1)C(C(=O)NC1CCCC1)c1cccnc1)c1ccco1 (stereo unspecified) | 2.19
Cc1ccccc1OCC(=O)Nc1sc(C(=O)Nc2cccc(C)c2C)c(C)c1C#N | -0.341
COc1cc(C(=O)OCC(=O)NC2CCCC2)cc(NC(=O)c2ccco2)c1OC | -0.735
O=C(COC(=O)c1ccco1)Nc1nc2ccccc2s1 | 0.111
Cc1cccc(NC(=O)/C=C/c2ccc([N+](=O)[O-])s2)c1 | 0.281

— PubChem BioAssay AID488969 (Vanderbilt High Throughput Screening Facility, 2010)
